According to PMC4336329 (PLoS ONE, 2015):
Among all 310,000 compounds or so, about 2,200 (0.71%) showed an effect of 50% or more. The effect is printed as a negative number. Some of the results follow.

Target: human ether-à-go-go-related gene (hERG) potassium channel (human, UniProt Q12809)
Assay: primary screen, population patch clamp on CHO cells stably expressing hERG

Chain of human ether-à-go-go-related gene (hERG) potassium channel (Q12809 whole entry, looked up): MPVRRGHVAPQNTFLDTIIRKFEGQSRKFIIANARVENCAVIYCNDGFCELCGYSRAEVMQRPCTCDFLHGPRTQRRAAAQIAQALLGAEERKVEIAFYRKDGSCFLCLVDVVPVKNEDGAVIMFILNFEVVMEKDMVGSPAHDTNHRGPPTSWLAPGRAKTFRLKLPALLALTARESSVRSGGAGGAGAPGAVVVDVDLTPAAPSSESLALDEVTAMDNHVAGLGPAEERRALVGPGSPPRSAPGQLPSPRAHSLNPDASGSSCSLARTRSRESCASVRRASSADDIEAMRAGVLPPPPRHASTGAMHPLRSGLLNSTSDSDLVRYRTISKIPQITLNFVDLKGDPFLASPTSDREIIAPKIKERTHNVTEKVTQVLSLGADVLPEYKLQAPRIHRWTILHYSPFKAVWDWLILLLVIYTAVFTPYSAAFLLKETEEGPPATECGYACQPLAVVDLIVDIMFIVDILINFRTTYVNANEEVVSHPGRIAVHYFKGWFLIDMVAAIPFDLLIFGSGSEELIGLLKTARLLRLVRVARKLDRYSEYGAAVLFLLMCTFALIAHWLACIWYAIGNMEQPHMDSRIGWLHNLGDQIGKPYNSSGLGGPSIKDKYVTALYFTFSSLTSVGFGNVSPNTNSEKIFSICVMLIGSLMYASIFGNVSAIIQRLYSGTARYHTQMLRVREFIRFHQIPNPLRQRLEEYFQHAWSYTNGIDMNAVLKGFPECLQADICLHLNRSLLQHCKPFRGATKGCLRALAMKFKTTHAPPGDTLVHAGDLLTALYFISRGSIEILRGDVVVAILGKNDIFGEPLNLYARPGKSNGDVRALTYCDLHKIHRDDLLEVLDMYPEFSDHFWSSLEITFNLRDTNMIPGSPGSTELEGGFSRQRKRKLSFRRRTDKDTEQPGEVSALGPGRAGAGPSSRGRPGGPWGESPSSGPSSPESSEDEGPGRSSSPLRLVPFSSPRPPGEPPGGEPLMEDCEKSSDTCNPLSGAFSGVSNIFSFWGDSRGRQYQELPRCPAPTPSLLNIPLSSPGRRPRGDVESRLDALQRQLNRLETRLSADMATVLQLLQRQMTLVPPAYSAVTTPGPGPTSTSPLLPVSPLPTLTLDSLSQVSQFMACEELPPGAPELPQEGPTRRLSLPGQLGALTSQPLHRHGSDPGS

Compound	hERG current change (%, negative = inhibition) at 1uM
CC1(C)SC(=S)N(/N=C/c2ccc(O)cc2)C1N(O)C(=O)Nc1ccc([N+](=O)[O-])cc1 (stereo not drawn)	8.05%
CN1CCN(c2nc(-c3ccc(Cl)cc3Cl)nc3ccccc23)CC1	-58.1%
Cc1cc(O)ccc1C1(c2ccc(O)cc2C)OC(=O)c2ccccc21	-10.2%
CN(C)CCCN(C(=O)COc1ccccc1)c1nc2cc3c(cc2s1)OCCO3	-8.76%
Cc1ccc(NC(=O)c2ccc(CSc3nccc(C)n3)cc2)cc1	-2.54%
COC(=O)c1ccc(Cn2cnc3c(cnn3-c3ccc(F)cc3)c2=O)o1	-1.84%
CNC(=O)CSc1ncnc2c1cnn2-c1ccccc1	7.62%
C=CCC1C=C(C)CC(CC=C)N1 (stereo not drawn)	4.64%
O=C(O)CN1C(=O)/C(=C\c2cc(Br)ccc2OCc2ccc(Cl)cc2Cl)SC1=S	11.3%
Cn1nc(C(=O)N2CCN(c3ccc(F)cc3)CC2)c2c1-c1ccccc1S(=O)(=O)C2	-16.4%
CCOC(=O)c1c(NC(=O)c2ccccc2C(=O)O)sc2c1CCC2	2.17%
COc1c(O)cc2oc(-c3ccc(O)c(O)c3)cc(=O)c2c1O	15.7%
CC(CCc1ccccc1)NC(=O)/C=C/c1ccc(F)cc1 (stereo not drawn)	-2.83%
Cn1c(-c2ccc(F)cc2)cnc1SCC(=O)Nc1ccccc1N1CCOCC1	10.9%
O=C(NCCS(=O)(=O)NCc1ccc(Cl)cc1)c1ccccc1	4.67%
COc1ccccc1-c1coc2c(CN3CCCCC3C)c(O)ccc2c1=O (stereo not drawn)	13%
O=C1c2ccccc2C(O)(Cc2ccccc2)N1Cc1ccco1 (stereo not drawn)	17.4%
C/C(CC(=O)NC(C)C)=N\NC(=O)COc1cc(C)c(Br)cc1Br	-21.6%
O=C(CC1CCCC1)N1CCCC(Nc2cccc(F)c2)C1 (stereo not drawn)	10.6%
Cc1ccsc1C(=O)NCC(C)(C)N1CCOCC1	4.07%
C=CCOC(=O)c1ccccc1N	12.9%
C[C@@H]1C=C(C(=O)N2CCOCC2)O[C@H](OCc2ccc(CO)cc2)C1	10.9%
Cc1nc2sc(C(c3ccccc3)N3CCOCC3)c(O)n2n1 (stereo not drawn)	16.2%

Compound	hERG current change (%, negative = inhibition) at 1uM
O=C(Nc1ncc2c(n1)-c1ccccc1OC2)c1cccc([N+](=O)[O-])c1	5.65%
Brc1ccc(-c2nc(-c3cccnc3)no2)o1	6.88%
COc1ccc(C(C)=O)cc1CSc1nnnn1-c1ccc(O)cc1	5.32%
Cc1ccc(-n2c(O)c(C=NC3CCS(=O)(=O)C3)c3ccccc3c2=O)cc1C (stereo not drawn)	4.45%
CCOP(=O)(OCC)C(O)c1ccc(OC)cc1 (stereo not drawn)	12%
CCOc1ccc(C(C)=O)cc1CSc1nnc(-c2ccncc2)n1CCOC	2.2%
CCOc1ccc(NC(=O)COC(=O)CCCc2c[nH]c3ccccc23)cc1	-7.5%
N#CC1(C#N)CC(C=O)=C(N)C1(C#N)CC(=O)c1ccc(F)cc1 (stereo not drawn)	3.15%
Cc1cc(Cl)c(S(=O)(=O)NCc2ccncc2)cc1OCC(N)=O	7.48%
CC(SCc1ccc(C(=O)O)o1)c1ccc(C(=O)O)o1 (stereo not drawn)	16.7%
CC(=O)Nc1ccc(NC(=O)C(C)n2nc(C)c([N+](=O)[O-])c2C)cc1 (stereo not drawn)	12.4%
CCOc1ccc(-n2c(SC)nc3c(c2=O)SCC3)cc1	22.9%
Cc1cc(OC(=O)c2cccs2)c2c3c(c(=O)oc2c1)CCCC3	15.3%
Fc1ccc(-n2c(Cc3ccccc3)nnc2SCc2nc(-c3cccs3)no2)cc1	-0.191%
COC(=O)c1cc(OC)c(OC)cc1NCC(=O)Nc1ccc(OC)c(OC)c1	13.5%
CCN(CC)c1nc(C)c(C(C)=O)cc1C#N	5.88%
COc1ccc2c(c1)C(C1=C(O)CC(C)(C)CC1=O)C1=C(CC(C)(C)CC1=O)O2 (stereo not drawn)	2.5%
CC1CCCC(C)N1C(=O)c1cccc2c1-c1ccccc1/C2=N/O (stereo not drawn)	15.1%
CCNC(=O)NC(=O)CSc1ccccc1F	9.56%
CC(C)(C)C1=CC=C(C(C)(C)C)C(=O)C1=O	7.14%
COc1ccc(N2CCN(C3CCCN(Cc4cccc(C(C)=O)c4)C3)CC2)cc1 (stereo not drawn)	1.73%
N=c1c(C(=O)NCc2ccco2)cc2c(=O)n3ccccc3nc2n1CC1CCCO1 (stereo not drawn)	-84.3%
Clc1ccc(-c2noc(CCCc3ccccc3)n2)cc1	16.1%

Compound	hERG current change (%, negative = inhibition) at 1uM
CCOc1ccc2ncc(C(=O)c3ccc(OC)cc3)c(N3CCN(CC)CC3)c2c1	-66%
CCC(NS(=O)(=O)c1cn(C)nc1C)c1ccccc1 (stereo not drawn)	17.9%
O=C1CCCC2=C1Sc1ccccc1N2	14.4%
Cc1n[nH]c(=O)c2c(NC(=O)CSc3nn(-c4ccc(F)cc4)c(=S)s3)oc(C)c12	5.51%
Cc1ccc(S(=O)(=O)N2CCCCC2)cc1NC(=O)CCOc1ccccc1	5.97%
Cc1cc(NS(=O)(=O)c2ccc(NC(=O)/C=C/c3ccc(Br)cc3)cc2)no1	17.1%
COc1ccc(C(C)=O)cc1CC(=O)N(Cc1ccccc1)c1ccccc1	0.862%
CCC1CN(C(=O)N2CCC(C(=O)Nc3ccccc3OC)CC2)c2ccccc2O1 (stereo not drawn)	26%
O=C(CCc1ccccc1)N/N=C\c1cc2c(cc1Br)OCO2	16%
O=c1[nH]cc([N+](=O)[O-])cc1Br	2.99%
Nc1cccc2cc(-c3ccccc3)oc12	-9.47%
CC(=O)c1sc(-c2ccccn2)nc1C	14.2%
CCc1cccc(CC)c1NC(=O)C1CN(S(=O)(=O)c2ccccc2)CCN1S(=O)(=O)c1ccccc1 (stereo not drawn)	19.2%
CC(=O)c1cc(-c2ccccc2)n(CC(=O)N2CCCC2)c1C	3.14%
CCOc1ccc(OCc2cccc(C(=O)N3CCOCC3)c2)cc1	16.3%
O=C(O)C(Br)CBr (stereo not drawn)	16.5%
Nc1nnc(SCC(=O)Nc2sc3c(c2C(=O)c2ccccc2)CCCC3)s1	1.07%
CN1CCN(CCCNC(=O)c2ccc(NC(=O)C3=CSCCO3)cc2)CC1	10.4%
CC(OC(=O)/C=C/c1ccccc1)C(=O)Nc1ccc2c(c1)OCCO2 (stereo not drawn)	12.4%
CC(CSc1nc2ccccc2s1)Cn1c(N2CCCC2)nc2c1c(=O)[nH]c(=O)n2C (stereo not drawn)	-4.43%
O=C(CSc1ncnc2c1oc1ccccc12)Nc1nc2ccccc2s1	13.1%
COc1cc(CCC(=O)NCc2ccc3c(c2)OCO3)cc(OC)c1OC	6.33%
Cc1nonc1C1CCCN1Cc1cn[nH]c1-c1ccc(-c2ccccc2)cc1 (stereo not drawn)	-26.6%

Compound	hERG current change (%, negative = inhibition) at 1uM
CC1CCCCN1C(=O)CSc1nnc(-c2cccnc2)n1C1CCCCC1 (stereo not drawn)	-9.3%
C/C(=N\Nc1ccc(C(F)(F)F)cn1)c1ccncc1	9.26%
CC(=O)Nc1nc(C(=O)Nc2c(C)n[nH]c2C)cs1	0.673%
Cc1ccc(N(CC(=O)NC2CCCCC2)C(=O)CCC(=O)Nc2nccs2)cc1	2.02%
O=c1c2ccccc2sn1-c1cc(S(=O)(=O)N2CCOCC2)ccc1N1CCOCC1	15.5%
Cc1cccc2cc(CN(CCCO)C(=O)Nc3ccccc3Cl)c(=O)[nH]c12	7.42%
COc1ccc2c(C)c(CC(=O)N3C[C@H]4C[C@@H](C3)c3cccc(=O)n3C4)c(=O)oc2c1	-8.73%
COc1ccc(/C=N/Nc2cn[nH]c(=O)c2Cl)cc1	13.3%
Cc1ccccc1P(=O)(CO)c1ccccc1C	-3.03%
CCOC(=O)COc1ccc(Oc2nc(C)cc(OC)n2)nn1	-5.04%
O=C(Nc1ccc(S(=O)(=O)Nc2ccc(F)cc2)cc1)c1ccc(CN2CCOCC2)cc1	2.42%
CCCn1c(=O)c(C(=O)NNS(=O)(=O)c2ccc(NC(=O)OC)cc2)c(O)c2ccccc21	11.8%
CCc1nnc(NC(=O)CCC(=O)NCC2CCCO2)s1 (stereo not drawn)	-9.38%
CCOC(=O)c1c(C)[nH]c(C)c1C(=O)COC(=O)/C=C/c1ccc(OC(F)F)cc1	0.906%
Cc1ccc2nc(-c3cccnc3)cc(C(=O)N3CCN(c4ccc([N+](=O)[O-])cc4)CC3)c2c1	-24%
CCCOc1ccc(N2C(=O)CC(NCc3ccc(S(N)(=O)=O)cc3)C2=O)cc1 (stereo not drawn)	7.72%
CSc1nc2[nH]c3c(c2c2nncn12)CC(C)(C)OC3	6.38%
Cc1ccc(C)c(S(=O)(=O)N/N=C/c2cccnc2)c1	4.13%
N#Cc1ccc(C(=O)NCCCSc2ccccc2)cc1	6.75%
CN1CCN(C(=O)CCCN2C(=O)/C(=C/c3ccccc3)SC2=S)CC1	5.29%
CCn1nc2cc(C(=O)NCC34CC5CC(CC(C5)C3)C4)ccc2c1OC	5.1%
